Scores with a large standard error are left out. Two further conditions of the source, in which the scores hardly spread, are not listed. In variant names, del marks residues removed and ins residues inserted between the two positions. For some of these results: The data file names ogerin without a concentration.

The text below walks through data of the GPR68 mutational scans of Howard et al. (2025).

Sequences and labels used below:
B1: GPR68, Q15743 (parent)
chain: MGNITADNSSMSCTIDHTIHQTLAPVVYVTVLVVGFPANCLSLYFGYLQIKARNELGVYLCNLTVADLFYICSLPFWLQYVLQHDNWSHGDLSCQVCGILLYENIYISVGFLCCISVDRYLAVAHPFRFHQFRTLKAAVGVSVVIWAKELLTSIYFLMHEEVIEDENQHRVCFEHYPIQAWQRAINYYRFLVGFLFPICLLLASYQGILRAVRRSHGTQKSRKDQIQRLVLSTVVIFLACFLPYHVLLLVRSVWEASCDFAKGVFNAYHFSLLLTSFNCVADPVLYCFVSETTHRDLARLRGACLAFLTCSRTGRAREAYPLGAPEASGKSGAQGEEPELLTKLHPAFQTPNSPGSGGFPTGRLA

The variants in series [1] derive from B1. The series can be described thus: cAMP reporter score (Enrich2 score, wild type = 0); higher = more signal; HEK293T, FACS bins.
In series [2] the parent is B1. The series can be described thus: surface expression score (Enrich2 score, wild type = 0); higher = more signal; HEK293T, FACS bins.

Take V65T: the cAMP reporter score in series [1] (pH 5.5) was -0.677; in series [1] (pH 6), -1.1; in series [1] (pH 6, modulator: ogerin), -0.52; in series [1] (pH 6.5, modulator: ogerin) it was -1.09. The surface expression score in series [2] is -1.64.

Consider V65C, for which the cAMP reporter score in series [1] (pH 5.5) was -0.008; in series [1] (pH 6), -1.68; in series [1] (pH 6, modulator: ogerin) it was -0.173; in series [1] (pH 6.5, modulator: ogerin), -0.458. In addition, in series [2], the surface expression score was -1.21.

As to L63del, the cAMP reporter score in series [1] (pH 5.5) is -1.78; in series [1] (pH 6) it was -0.802; in series [1] (pH 6, modulator: ogerin) it was -0.909; in series [1] (pH 6.5, modulator: ogerin), -0.721. Besides, in series [2], the surface expression score was -1.95.

As for T64_V65insGS, the cAMP reporter score in series [1] (pH 5.5) is -1.19; in series [1] (pH 6), -1.03; in series [1] (pH 6, modulator: ogerin) it was -2.42; in series [1] (pH 6.5, modulator: ogerin) it was -0.971. Further, the surface expression score in series [2] is -2.93.

As for L63E, the cAMP reporter score in series [1] (pH 5.5) was -1.15; in series [1] (pH 6) it was -1.49; in series [1] (pH 6, modulator: ogerin), -1.78; in series [1] (pH 6.5, modulator: ogerin), -2.01. For the same variant, in series [2], the surface expression score was -2.15.

On to L63Y, for which the cAMP reporter score in series [1] (pH 5.5) was -2.06; in series [1] (pH 6), -1.32; in series [1] (pH 6, modulator: ogerin) it was -1.51; in series [1] (pH 6.5, modulator: ogerin), -0.797. In addition, the surface expression score in series [2] was -2.99.

Take L63C: the cAMP reporter score was -0.91 in series [1] (pH 5.5); -0.692 in series [1] (pH 6); -1.41 in series [1] (pH 6, modulator: ogerin); -1.25 in series [1] (pH 6.5, modulator: ogerin). Moreover, in series [2], the surface expression score was -2.24.

With L63N, the cAMP reporter score in series [1] (pH 5.5) was -0.169; in series [1] (pH 6.5, modulator: ogerin) it was -0.538. In series [2], the surface expression score was -1.89.

On to L63G, for which the cAMP reporter score in series [1] (pH 5.5) was -1.81; in series [1] (pH 6, modulator: ogerin) it was -0.994; in series [1] (pH 6.5, modulator: ogerin), -0.151. In series [2], the surface expression score was -2.51.

In the case of L63M, the cAMP reporter score was -0.575 in series [1] (pH 5.5); 0.142 in series [1] (pH 6); -0.541 in series [1] (pH 6, modulator: ogerin); -0.531 in series [1] (pH 6.5, modulator: ogerin). Also, the surface expression score in series [2] was -1.

Regarding L63A, the cAMP reporter score is -0.175 in series [1] (pH 5.5); 1.58 in series [1] (pH 6); -0.971 in series [1] (pH 6, modulator: ogerin); -1.01 in series [1] (pH 6.5, modulator: ogerin).

On to L63F, for which the cAMP reporter score in series [1] (pH 5.5) is -1.89; in series [1] (pH 6, modulator: ogerin), -0.823; in series [1] (pH 6.5, modulator: ogerin) it was -1.87. The surface expression score in series [2] was -1.39.

With L63Q, the cAMP reporter score in series [1] (pH 5.5) was -1.85; in series [1] (pH 6), -1.51; in series [1] (pH 6, modulator: ogerin), -1.16; in series [1] (pH 6.5, modulator: ogerin), -2. Moreover, in series [2], the surface expression score was -1.95.

With L63D, the cAMP reporter score in series [1] (pH 5.5) is -1.6; in series [1] (pH 6, modulator: ogerin), -1.29; in series [1] (pH 6.5, modulator: ogerin), -1.64. Besides, the surface expression score in series [2] is -3.08.

With L63W, the cAMP reporter score in series [1] (pH 5.5) was -1.31; in series [1] (pH 6) it was -1.56; in series [1] (pH 6, modulator: ogerin), -2.05; in series [1] (pH 6.5, modulator: ogerin), -1.49. Besides, the surface expression score in series [2] was -2.03.

Turning to L63P, the cAMP reporter score in series [1] (pH 5.5) was -1.02; in series [1] (pH 6), -0.536; in series [1] (pH 6, modulator: ogerin) it was -2.54; in series [1] (pH 6.5, modulator: ogerin) it was -0.95. For the same variant, the surface expression score in series [2] was -3.41.

Consider L63I, for which the cAMP reporter score in series [1] (pH 5.5) is -0.08; in series [1] (pH 6), -0.152; in series [1] (pH 6, modulator: ogerin), -0.281; in series [1] (pH 6.5, modulator: ogerin), -0.406. Besides, in series [2], the surface expression score came out at 0.3.

Take L63K: the cAMP reporter score was -0.644 in series [1] (pH 5.5); -0.321 in series [1] (pH 6); -0.889 in series [1] (pH 6, modulator: ogerin); -0.963 in series [1] (pH 6.5, modulator: ogerin). Moreover, the surface expression score in series [2] worked out at 1.66.

Turning to L63S, the cAMP reporter score in series [1] (pH 5.5) is -1.46; in series [1] (pH 6), -0.528; in series [1] (pH 6, modulator: ogerin), -2.34; in series [1] (pH 6.5, modulator: ogerin) it was -1.52. In addition, the surface expression score in series [2] is -2.49.

Turning to L63T, the cAMP reporter score was -1.19 in series [1] (pH 5.5); -0.991 in series [1] (pH 6); -1.18 in series [1] (pH 6, modulator: ogerin); -1.53 in series [1] (pH 6.5, modulator: ogerin). The surface expression score in series [2] was -2.07.

In the case of L63V, the cAMP reporter score is -0.593 in series [1] (pH 5.5); -0.584 in series [1] (pH 6); -0.51 in series [1] (pH 6, modulator: ogerin); -0.601 in series [1] (pH 6.5, modulator: ogerin). The surface expression score in series [2] is -2.12.

For L63H, the cAMP reporter score in series [1] (pH 5.5) is -0.948; in series [1] (pH 6), -1.49; in series [1] (pH 6, modulator: ogerin), -1.8; in series [1] (pH 6.5, modulator: ogerin), -1.16. The surface expression score in series [2] is -2.64.

Turning to L63R, the cAMP reporter score in series [1] (pH 5.5) was -0.521; in series [1] (pH 6) it was -0.299; in series [1] (pH 6, modulator: ogerin) it was -1.24; in series [1] (pH 6.5, modulator: ogerin), -0.61. The surface expression score in series [2] is -1.65.

On to E55del, for which the cAMP reporter score in series [1] (pH 5.5) was -1.81; in series [1] (pH 6), -0.854; in series [1] (pH 6, modulator: ogerin), -1.62; in series [1] (pH 6.5, modulator: ogerin), -1.34. Further, the surface expression score in series [2] was -2.34.

Take N54_E55insGS: the cAMP reporter score in series [1] (pH 5.5) was 0.317; in series [1] (pH 6, modulator: ogerin) it was -2.17; in series [1] (pH 6.5, modulator: ogerin), -1.88. The surface expression score in series [2] is -1.05.

As for R53_N54insG, the cAMP reporter score is -0.079 in series [1] (pH 5.5); -1.4 in series [1] (pH 6); -0.536 in series [1] (pH 6, modulator: ogerin); -0.918 in series [1] (pH 6.5, modulator: ogerin). Besides, in series [2], the surface expression score is -2.34.

As for A52_N54del, the cAMP reporter score was -0.907 in series [1] (pH 5.5); -0.989 in series [1] (pH 6); -1.17 in series [1] (pH 6, modulator: ogerin); -1.36 in series [1] (pH 6.5, modulator: ogerin). Besides, the surface expression score in series [2] is -2.44.

In the case of E55P, the cAMP reporter score in series [1] (pH 5.5) is -0.098; in series [1] (pH 6) it was 0.019; in series [1] (pH 6, modulator: ogerin), -0.01; in series [1] (pH 6.5, modulator: ogerin), 0.007. Further, the surface expression score in series [2] is 1.68.

E55V: the cAMP reporter score is -0.499 in series [1] (pH 5.5); 0.012 in series [1] (pH 6); -0.911 in series [1] (pH 6, modulator: ogerin); -0.411 in series [1] (pH 6.5, modulator: ogerin). The surface expression score in series [2] was 2.31.

As to E55G, the cAMP reporter score in series [1] (pH 5.5) was -0.791; in series [1] (pH 6), -0.535; in series [1] (pH 6, modulator: ogerin), -0.528; in series [1] (pH 6.5, modulator: ogerin) it was -1.18. Besides, in series [2], the surface expression score was 1.58.

Turning to E55I, the cAMP reporter score in series [1] (pH 5.5) is -1.33; in series [1] (pH 6), -0.439; in series [1] (pH 6, modulator: ogerin) it was -0.956; in series [1] (pH 6.5, modulator: ogerin), -0.772. The surface expression score in series [2] stood at 0.785.
